Test results as given in the supplement of paper PMC12645437, “Orthogonal IMiD-Degron Pairs Induce Selective Protein Degradation in Cells” (ACS Chemical Biology, 2025).
Some of the results follow.

B1: Q9UKT9 (peptide)
chain: FVCNQCGHWFTQKGNLLRHIKL
B2: Q9UKT9 (peptide)
chain: FQCNICGACFTQKGNLLRHIKL
B3: Q9UKT9 (peptide)
chain: FLCPQCGAFFTQKGNLLRHIKL
B4: Q9UKT9 (peptide)
chain: FQCNQCGHQFTQKGNLLRHIKL
B5: Q9UKT9 (peptide)
chain: FDCPVCGARFTQKGNLLRHIKL
B6: Q9UKT9 (peptide)
chain: FKCPICGAWFTQKGNLLRHIKL
B7: Q9UKT9 (peptide)
chain: FDCDQCGARFTQKGNLLRHIKL
B8: Q9UKT9 (peptide)
chain: LLCNQCGFSCTQKGNLLRHIKL
B9: Q9UKT9 (peptide)
chain: FTCEQCGAKFTQKGNLLRHIKL
B10: Q9UKT9 (peptide)
chain: FKCNQCGRDFTQKGNLLRHIKL
B11: Q9UKT9 (peptide)
chain: FFCDQCGAPFTQKGNLLRHIKL
B12: Q9UKT9 (peptide)
chain: FTCDICGACFTQKGNLLRHIKL
B13: Q9UKT9 (peptide)
chain: FSCPICGRCFTQKGNLLRHIKL
B14: Q9UKT9 (peptide)
chain: FACEICGRLFTQKGNLLRHIKL

biological target: no compound (DMSO); experiment: log2 fold change of degron read counts, EGFP-low vs EGFP+ sorted cells; higher = lower degron-EGFP level without compound (poor expression or instability); details: compound: DMSO control; 18 h
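Further: jurkat cells carrying a lentiviral library of mutant zinc finger degrons fused to EGFP plus mCherry, mCherry+ cells FACS sorted, degron abundance counted by next-generation sequencing.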

Sequence	log2 fold change of degron read counts
B1	-0.594
B2	-0.978
B3	0.668
B4	-1.26
B5	-0.57
B6	0.468
B7	-1.35
B8	0.194
B9	-2.87
B10	-1.59
B11	-0.74
B12	-1.02
B13	-0.435
B14	-0.6
